Results taken from PubChem BioAssay AID588453 (National Center for Advancing Translational Sciences (NCATS), 2011).
About 4,000 (1%) of roughly 390,000 compounds were called active. The shares of active, inactive and inconclusive entries below differ from those in the screen. Calls come from the whole dose curve; as a rule, active = well fitted inhibition curve with a large enough effect; inconclusive = small, poorly fitted or top-dose-only effect; inactive = no such curve, though single readings can be large or run the other way. A potency beside an inconclusive call is a rough fit, not a confirmed value.

These compounds were tested against Thioredoxin reductase 1, cytoplasmic (Rattus norvegicus) (UniProt O89049) (assay: qHTS Assay for Inhibitors of Mammalian Selenoprotein Thioredoxin Reductase 1 (TrxR1): qHTS). Details: recombinant rTrxR1, NADPH fluorescence consumption, selenite substrate; series mostly up to 114 µM; activity change, negative = inhibition: at the top concentration.
Procedure, shortened: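 Rat TrxR1 (90 nM in the dispensed reagent) was pre-reduced with 400 uM NADPH for 5 min at room temperature, then incubated with compound for 15 min. After 400 uM selenite was added, NADPH fluorescence (Ex 340/Em 450 nm) was followed for 8 min.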
% is set by controls: 0 for no effect and ±100 for the full control effect; potency is the fitted concentration of half-maximal effect; tags give direction and shape of the fitted curve.
Note: nearly all actives have a fitted effect of over 65% in size.

Sequence of UniProt O89049 (O89049 whole entry, looked up): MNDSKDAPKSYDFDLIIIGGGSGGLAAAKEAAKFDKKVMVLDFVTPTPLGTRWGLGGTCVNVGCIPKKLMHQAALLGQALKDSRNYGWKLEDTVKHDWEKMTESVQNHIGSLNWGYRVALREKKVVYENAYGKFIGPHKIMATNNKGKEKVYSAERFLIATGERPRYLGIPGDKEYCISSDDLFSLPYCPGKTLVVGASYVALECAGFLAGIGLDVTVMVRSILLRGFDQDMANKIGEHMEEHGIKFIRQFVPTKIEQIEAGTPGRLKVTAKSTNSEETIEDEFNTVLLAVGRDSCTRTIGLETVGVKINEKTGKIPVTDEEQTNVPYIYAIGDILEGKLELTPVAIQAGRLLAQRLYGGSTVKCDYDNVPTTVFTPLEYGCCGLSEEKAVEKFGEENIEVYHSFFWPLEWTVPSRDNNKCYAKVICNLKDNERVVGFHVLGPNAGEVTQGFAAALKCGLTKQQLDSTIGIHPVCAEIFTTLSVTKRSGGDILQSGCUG

SMILES | activity change, negative = inhibition | Potency
CCN1CCN(C(=O)/C=C/c2ccc(C(C)C)cc2)CC1 | inactive: -1.89% | 
CC(=O)N[C@@H](Cc1c[nH]c2ccccc12)C(=O)OCc1cc(C(F)(F)F)cc(C(F)(F)F)c1 |  | inconclusive: 39.8 µM [inhibitor, partial curve]
O=C(CCn1c(=O)c2cccn2c2ccc(F)cc21)NCCc1ccccc1Cl | inactive: 13.7% | 
S=C(NCc1ccccc1)Nc1cccc2cnccc12 | inactive: 12.5% [at 57.1 µM] | 
CCc1c(C(C)S(=O)(=O)c2ccc(C)cc2)[nH]c(=O)n1-c1ccc(C)cc1 (centres undefined) |  | inconclusive: 2 µM [inhibitor, partial curve, poor fit]
CCC(=O)Nc1ccc(Cl)c(NC(=S)NC(=O)c2ccco2)c1 |  | inconclusive: 50.1 µM [inhibitor, partial curve]
CCOc1ccc(OCC)c(C2C(C#N)=C(N)N(c3cccnc3)C3=C2C(=O)CC(C)(C)C3)c1 (centres undefined) |  | inconclusive: 70.8 µM [inhibitor, single point]
O=C(Nc1nc(-c2ccco2)c(-c2ccco2)s1)c1ccc(F)cc1F |  | inconclusive: 25.1 µM [inhibitor, partial curve]
O=C(O)Cn1c2ccccc2c2n[nH]c(=S)nc21 |  | inconclusive: 2 µM [inhibitor, full curve]
O=C(CN1CCN(c2ccc(Cl)cc2)CC1)NCc1cccs1 |  | inconclusive: 100 µM [inhibitor, single point]
Cc1ccc(S(=O)(=O)CCC(=O)N(CCCN2CCOCC2)c2nc3ccccc3s2)cc1 |  | active: 28.2 µM
COC1=C(Br)C(=O)c2ncccc2C1=O |  | inconclusive: 0.631 µM [inhibitor, full curve, poor fit]
COC(=O)C1=NN(c2ccccc2OC)C2C(=O)N(c3ccccc3OC)C(=O)C12 (centres undefined) |  | inconclusive: 89.1 µM [inhibitor, partial curve, poor fit]
COc1ccc(-c2oc(NC(=O)CSc3ncn[nH]3)c(C#N)c2-c2ccc(OC)cc2)cc1 | inactive: -1.6% | 
O=C(O)c1ccc(/C=N\Nc2ccccn2)cc1 | inactive: 1.2% [at 57.1 µM] | 
CCC(C)NC(=O)c1ccc2nc(-c3ccc(OC)c(OC)c3)c(-c3ccc(OC)c(OC)c3)nc2c1 (centres undefined) |  | inconclusive: 56.2 µM [inhibitor, partial curve, poor fit]
Cc1ccc(C)c(CN2CCC(CNC(=O)Cn3ncc4c([nH]c5ccccc54)c3=O)CC2)c1 | inactive: 18.9% | 
CS(=O)(=O)Nc1ccc(C2=NN(C(=O)CCCC(=O)O)C(c3cccs3)C2)cc1 (centres undefined) |  | inconclusive: 79.4 µM [inhibitor, single point]
O=C(COC(=O)c1ccccc1Oc1ccccc1)NCc1ccco1 |  | inconclusive: 31.6 µM [inhibitor, single point]
